The supplement of paper PMC4967469

Assays:
Assay in all cases: Viability of human cancer cell lines after 72 h of drug (GDSC screen)
Belinostat = compound: O=C(/C=C/c1cccc(S(=O)(=O)Nc2ccccc2)c1)NO [Belinostat]; details: top dose 20 µM; top dose inferred
Description: (§1)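 Human cancer cell lines in 384-well plates, medium with 10% serum, drug for 72 h over a 256-fold dose range (nine 2-fold or five 4-fold steps up to the top dose). Adherent lines were fixed and stained with the nucleic acid dye Syto60, suspension lines read with resazurin; signal relative to control wells, capped at 0 and 100%. One two-parameter sigmoid per drug and line, fitted in a mixed model over all curves with the slope shared within a line.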

OSI-906 = compound: C[C@]1(O)C[C@@H](c2nc(-c3ccc4ccc(-c5ccccc5)nc4c3)c3c(N)nccn32)C1 [OSI-906]; details: top dose 2.56 µM; top dose inferred
Description: as §1

JNJ-26854165 = compound: c1ccc2c(CCNc3ccc(Nc4ccncc4)cc3)c[nH]c2c1 [JNJ-26854165]; details: top dose 10 µM
Description: as §1

AMG-706 = compound: CC1(C)CNc2cc(NC(=O)c3cccnc3NCc3ccncc3)ccc21 [AMG-706]; details: top dose 2 µM; top dose inferred
Description: as §1

SB-715992 = compound: Cc1ccc(C(=O)N(CCCN)[C@@H](c2nc3cc(Cl)ccc3c(=O)n2Cc2ccccc2)C(C)C)cc1 [SB-715992]; details: top dose 0.128 µM; top dose inferred
Description: as §1

FTI-277 = compound: COC(=O)[C@H](CCSC)NC(=O)c1ccc(NC[C@@H](N)CS)cc1-c1ccccc1 [FTI-277]; details: top dose 1.024 µM; top dose inferred
Description: as §1

NSC-207895 = compound: CN1CCN(c2ccc([N+](=O)[O-])c3no[n+]([O-])c23)CC1 [NSC-207895]; details: top dose 20 µM; top dose inferred
Description: as §1

JNK Inhibitor VIII = compound: CCOc1nc(NC(=O)Cc2cc(OC)ccc2OC)cc(N)c1C#N [JNK Inhibitor VIII]; details: top dose 10 µM; top dose inferred
Description: as §1

YM155 = compound: COCC[n+]1c2c(n(Cc3cnccn3)c1C)C(=O)c1ccccc1C2=O [YM155]; details: top dose 5.12 µM
Description: as §1

JQ1 = compound: Cc1sc2c(c1C)C(c1ccc(Cl)cc1)=N[C@@H](CC(=O)OC(C)(C)C)c1nnc(C)n1-2 [JQ1]
Description: as §1

[1] = top dose 1 µM, screen: GDSC drug entry 1218, top dose inferred
[2] = top dose 2.56 µM, screen: GDSC drug entry 163

Row | Cell Line | AUC (Belinostat) | IC50 (Belinostat) [nM] | AUC (OSI-906) | IC50 (OSI-906) [nM] | AUC (JNJ-26854165) | IC50 (JNJ-26854165) [nM] | AUC (AMG-706) | IC50 (AMG-706) [nM] | AUC (SB-715992) | IC50 (SB-715992) [nM] | AUC (FTI-277) | IC50 (FTI-277) [nM] | AUC (NSC-207895) | IC50 (NSC-207895) [nM] | AUC (JNK Inhibitor VIII) | IC50 (JNK Inhibitor VIII) [nM] | AUC (YM155) | IC50 (YM155) [nM] | AUC (JQ1; [1]) | IC50 (JQ1; [1]) [nM] | AUC (JQ1; [2]) | IC50 (JQ1; [2]) [nM]
1 | NCI-H460 (large cell lung carcinoma, adherent) | 0.896 | > 20000 | 0.988 | > 2560 | 0.896 | > 10000 | 0.99 | > 2000 | 0.99 | > 128 | 0.967 | > 1020 | 0.99 | > 20000 | 0.99 | > 10000 | 0.489 | 299 | – | – | – | –
2 | NCI-H522 (lung adenocarcinoma, adherent) | 0.327 | 374 | 0.874 | > 2560 | 0.936 | > 10000 | 0.982 | > 2000 | 0.742 | 45.7 | 0.972 | > 1020 | 0.984 | > 20000 | 0.975 | > 10000 | 0.221 | 40.9 | – | – | – | –
3 | OACp4C (oesophagus, adherent) | 0.195 | 124 | – | – | 0.845 | 9520 | 0.947 | > 2000 | 0.847 | 125 | – | – | 0.847 | 19500 | 0.974 | > 10000 | 0.048 | < 20 | 0.961 | > 1000 | – | –
4 | PA-TU-8902 (pancreas, adherent) | – | – | 0.79 | 1360 | 0.867 | > 10000 | 0.979 | > 2000 | 0.932 | > 128 | 0.969 | > 1020 | 0.962 | > 20000 | 0.983 | > 10000 | 0.043 | < 20 | 0.981 | > 1000 | 0.898 | > 2560
5 | PC-3 (prostate, adherent) | 0.476 | 1060 | 0.98 | > 2560 | 0.928 | > 10000 | 0.924 | > 2000 | – | – | 0.983 | > 1020 | 0.617 | 2820 | 0.919 | > 10000 | 0.035 | < 20 | – | – | – | –
6 | PC-3 [JPC-3] (lung adenocarcinoma, adherent) | 0.569 | 2060 | 0.952 | > 2560 | 0.932 | > 10000 | 0.95 | > 2000 | 0.762 | 60.4 | 0.975 | > 1020 | 0.89 | > 20000 | 0.973 | > 10000 | – | – | 0.964 | > 1000 | 0.872 | > 2560
7 | PFSK-1 (medulloblastoma, adherent) | 0.676 | 4000 | 0.932 | > 2560 | – | – | 0.873 | > 2000 | 0.727 | 37.1 | 0.979 | > 1020 | 0.962 | > 20000 | 0.888 | > 10000 | 0.033 | < 20 | – | – | 0.949 | > 2560
8 | SK-MEL-28 (melanoma, adherent) | 0.631 | 2860 | 0.965 | > 2560 | 0.869 | 8890 | 0.97 | > 2000 | 0.975 | > 128 | 0.987 | > 1020 | 0.904 | > 20000 | 0.988 | > 10000 | 0.069 | < 20 | – | – | – | –
9 | SU-DHL-10 (B-cell lymphoma, suspension) | 0.005 | < 78.1 | – | – | 0.905 | 6390 | 0.998 | > 2000 | 0.407 | 4.77 | 0.997 | > 1020 | 0.969 | > 20000 | 0.998 | > 10000 | 0.005 | < 20 | 0.998 | > 1000 | 0.184 | 27.3
10 | SW1783 (glioma, adherent) | 0.519 | 1400 | 0.939 | > 2560 | 0.881 | 8660 | 0.981 | > 2000 | 0.991 | > 128 | 0.916 | > 1020 | 0.991 | > 20000 | 0.988 | > 10000 | 0.373 | 149 | – | – | – | –
11 | SiHa (cervix, adherent) | 0.944 | > 20000 | 0.964 | > 2560 | – | – | 0.954 | > 2000 | 0.981 | > 128 | 0.986 | > 1020 | 0.985 | > 20000 | 0.984 | > 10000 | 0.831 | 3940 | 0.802 | 582 | 0.87 | > 2560
12 | T47D (breast, adherent) | 0.331 | 327 | 0.962 | > 2560 | 0.836 | > 10000 | 0.962 | > 2000 | 0.849 | > 128 | 0.965 | > 1020 | 0.893 | > 20000 | 0.969 | > 10000 | 0.348 | 96.9 | – | – | – | –
13 | U031 (kidney, adherent) | 0.586 | 2170 | 0.941 | > 2560 | 0.781 | 4290 | 0.984 | > 2000 | 0.927 | > 128 | 0.961 | > 1020 | 0.981 | > 20000 | 0.974 | > 10000 | – | – | 0.942 | > 1000 | 0.504 | 164
14 | YH-13 (glioma, adherent) | 0.567 | 1920 | – | – | 0.888 | > 10000 | 0.857 | 1770 | 0.773 | 52.8 | – | – | 0.985 | > 20000 | 0.955 | > 10000 | 0.265 | 65.5 | 0.985 | > 1000 | – | –

IC50 is the fitted dose that halves viability relative to control wells, and lower means more sensitive; a limit (>, <) means that the fit lies beyond the doses tested. For AUC the same curve is integrated over the 256-fold range of doses and scaled to a fraction: 1 means no effect, lower means more sensitive. For some of these results: Where the top dose is marked as inferred, it comes from the curve model; the source does not state it. For some of these results: Where an entry number is given, a second screen of the drug exists; the two often differ.
